In the supplement of paper PMC10126150:
Values marked as one replicate rest on one cluster of the flow cell; about a third of the high ones do not repeat.

System: ATP
Assay: switch fluorescence ratio, 500 uM ATP over buffer (Cy3 cluster intensity, sum of 5 cycles each) (fold (ratio)); higher = stronger signal-on switching upon ATP binding; sequences stand for … in TCGTCGGCAGCGTCAGATGTGTATAAGAGACAGTTTTTTTTTTTTTTTTTTTTTTTTT…TC
Conditions: aptamer strand: ATP DNA aptamer (quencher-CACCTGGGGGAGTATTGCGGAGGAAGG + anchor), 100 nM annealed; ATP concentration: 500 uM; one replicate
Procedure, shortened: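 Imaging in selection buffer was followed by imaging after 15 min with 500 uM ATP at 22 °C, for Cy3-labelled switching-strand clusters annealed to 100 nM quencher-labelled ATP aptamer on a modified Illumina MiSeq flow-cell. Five of these buffer/ATP cycles ran, separated by NaOH stripping and re-annealing. The fluorescence ratio per cluster is summed target-cycle over summed buffer-cycle Cy3 intensity, averaged per switch-domain sequence; clusters outside 100-1000 RFU were removed.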
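Note: ATP exposure 15 min at 22 °C before imaging.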

Sequence | switch fluorescence ratio
CCGTCTTGGA | 0.958
TCCGTGGCGG | 1.04
GTTACTAGTC | 0.952
ATGACTTGA | 1.03
TCAGATGAGC | 1.05
CGAGTCCCAA | 2.11
TCTACGGTCC | 1.1
ACTCAAGAAA | 1.1
GCCAATCCGT | 0.999
GGTTAGATA | 0.986
CTTTAATATG | 1.01
TGTGTCAGAA | 0.986
AGTTGCTACT | 1.02
TTTAACCGCT | 1.2
TATACTGG | 1
GTTTGAACCT | 2.1
AAGGAGGAC | 1.13
CGCGCCTGAT | 0.953
CCAGACATAC | 4.19
GCTAATTCTG | 1
GGGGAACTCT | 1
TTATGACAGT | 1.05
CGTGGAAAAG | 0.997
ACTATGACTA | 1.03
ATGAGCGACA | 1
TGGCACCGGC | 0.997

Sequence | switch fluorescence ratio
TTACGTCGGA | 1.06
CTCAGACTTT | 0.958
CAGGTTGCGG | 0.952
GCGCTACATA | 1.04
AAATAGGGAT | 0.984
GCAGTAGAC | 1.41
AATTGAAATT | 1.01
TGACTATA | 1.04
CATAATAGAC | 1.03
ATAAGAGGAT | 1.01
ACCCACGGAC | 1.62
CAATTCGGGC | 1.01
GCGTGGCAG | 1.05
ACGCCCGATT | 1.09
TAGTGGGAAC | 1.02
TCGGACGAAA | 4.44
TCGACTTATA | 1.04
GGTGCTTTTC | 0.969
AGCACACGAC | 2.43
TTGATGCGAG | 0.974
TAGTGATAG | 1.06
GATTAATCTT | 1.01
GATTGAGCAC | 1.02
GATTATTCTA | 0.992
GAGGCACTAT | 1.25
ATCACTGTTT | 0.932

Sequence | switch fluorescence ratio
TTTTCTGCTC | 1.01
GGGTGTAAA | 1.1
AAAGTTTGAG | 1
GAAGATGGAT | 0.978
GAATGAACGG | 1.11
ACTCCCACGA | 1.69
TGATCCAGC | 1.07
TTAGACAAGT | 1.02
GTGCAGAAGT | 0.977
CCTGCCAAGG | 1.02
CACAGATGTC | 0.928
AAGATCGCTG | 0.93
TAATGTAAAC | 0.966
TGTCAGCCG | 0.88
TCTCACTAAA | 0.995
AAACAATGGG | 1.01
ATAAAGGACG | 1
GAATCAGAGA | 0.997
AGAAAGTGGG | 0.975
TTTGACATGA | 1.05
TCGGGTGTAG | 0.993
AAGCAGAACT | 1.17
AATACAAAAC | 1.04
CGGCAGTATA | 1.02
TACGAACCCA | 1.38
GTCTTTAGAT | 1.03

Sequence | switch fluorescence ratio
ATATTGTATT | 1.05
TTTGGACTGA | 0.946
ACACCAGCAC | 1.02
AGCACTAGAC | 1.47
ATCCAGACCG | 1.02
AGGGTTAACC | 1.02
TTCATCAGCC | 1.22
TTGCAGTCAC | 1.15
GAAAGTGGGC | 1.05
GCGGGCTTTG | 0.951
ATGGCCTGTG | 1.02
GAGGTACCA | 1
AGCTCACCTT | 1.11
CGTTTCGGGC | 1.05
AGATCCTGTG | 1.02
TTAGACTTGC | 0.998
GCCTTTACAC | 1.02
CTGTGCAACA | 1.02
CCTAAGCTCG | 1.01
TCTAAAAAGC | 0.992
GAATATGGGG | 1.02
TGCGCGTTAG | 1.06
GAACGGGACC | 1.4
GGTAAATCGC | 1.03
AAGCAGCAGT | 1.08
AAAGATTTTC | 0.986

Sequence | switch fluorescence ratio
ACGATCGAAT | 1.11
GGTCGACGGG | 1
TCGGGTGTGG | 1.03
TAACTAACAA | 1.05
TGGAAATCGG | 0.935
GGCACGGTGA | 1.03
GAAGCGAGGA | 1.11
AAAAGGGTAT | 1.01
AGTGAAGCGG | 0.959
GAGTGTTGCG | 1.01
CCCCGGGTTC | 1.49
AGAAACTTTT | 0.969
AGGTAGAGC | 0.969
TTCGAATTTT | 0.979
TAGGGATCTG | 0.997
GGTGTACCGA | 1
AACTGGGACG | 1.03
GTGCTTCCCA | 0.991
ATCATATTTC | 1.02
GAAGGGCTCG | 0.949
CTACCATGAT | 1.05
CGTTCGCCTC | 1.27
GGGTTTGTTC | 1.03
CGCCTTATCG | 1.02
AGAATAGATG | 0.971
GTCACCGTCC | 1.43

Sequence | switch fluorescence ratio
GGTCGTGCAA | 1.05
ACCTCCCCCT | 1.93
AAGGTTTAGA | 1.01
CTATTAGGTC | 0.986
TACCTTTTTT | 1.02
GGGCCGGATC | 0.962
TAATGGTGAG | 0.991
CCATAGACTT | 1.02
TTAGGCGCA | 1.03
CGTAAATGTT | 1.02
TAGTAAAACT | 1.02
TTCAGTAATT | 0.984
CTTATGCAGG | 0.983
GTGGAGGGTC | 1.03
GTCGTAGCTC | 1.11
AACAGGTGGT | 1.27
CGGACACACC | 1.88
GAACGGTTCT | 0.956
AGTGGGATGT | 0.969
GGGCATGCTA | 0.988
ATTAGCGAAA | 1
ACGTCGGCCG | 0.985
ATTCCTTTGG | 0.971
